The list shows a part of the results.
Key:
HSkMC = human skeletal muscle cells; test: cytotoxicity call (relative viability < 0.9); settings: 10 µM
HepG2 = test: cytotoxicity call (relative viability < 0.9); settings: 10 µM
S. aureus RN4220 = test: growth inhibition call (relative growth <= 0.2); settings: 50 µM

Row | Structure (SMILES) | cytotoxicity call (HSkMC) | cytotoxicity call (HepG2) | growth inhibition call (S. aureus RN4220)
1 | O=C(O)[C@H]1C[C@@H]2C[C@H]1CC[C@@H]2O | inactive | inactive | inactive
2 | CC(=O)OCC(=O)C1(O)CCC2C3CCC4CC(O)CCC4(C)C3C(=O)CC21C (stereo not given) | inactive | inactive | inactive
3 | C[C@H](CO)N1C[C@H](C)[C@@H](CN(C)C(=O)Nc2cccc3ccccc23)Oc2ccc(NC(=O)Nc3cccc4ccccc34)cc2CC1=O | active | inactive | inactive
4 | C[C@@H]1CN([C@H](C)CO)C(=O)Cc2cc(NS(=O)(=O)c3ccccc3)ccc2O[C@H]1CN(C)Cc1ccc(Oc2ccccc2)cc1 | inactive | active | inactive
5 | C[C@H]1CN([C@@H](C)CO)C(=O)Cc2cc(NC(=O)C3CCCCC3)ccc2O[C@@H]1CN(C)C(=O)Nc1ccc(C(F)(F)F)cc1 | inactive | inactive | inactive
6 | COc1ccc(NC(=O)N(C)C[C@H]2Oc3c(NS(C)(=O)=O)cccc3C(=O)N([C@H](C)CO)C[C@@H]2C)cc1 | inactive | inactive | inactive
7 | COCC(=O)Nc1ccc2c(c1)OC[C@@H](C)N(C(=O)Cc1ccccn1)C[C@H](C)[C@H](OC)CN(C)C2=O | inactive | inactive | inactive
8 | COc1ccc([C@@H]([C@H](Cc2ccccc2)OC(C)=O)N2C[C@H]3C(=NO[C@@H]3[C@@H](OC(C)=O)c3ccccc3)[C@@H]2Cc2ccccc2)cc1 | inactive | inactive | inactive
9 | COCC#Cc1ccc([C@H]2[C@@H](CO)N3C(=O)CN(C(=O)c4cccnc4)C[C@@H]23)cc1 | inactive | inactive | inactive
10 | C=CC[C@@H](CC(=O)NCCO)C(=O)N[C@@H](C)COC(=O)[C@@H](CC=C)NC(=O)OCC1c2ccccc2-c2ccccc21 | inactive | inactive | inactive
